From the supplement of paper PMC12645437, “Orthogonal IMiD-Degron Pairs Induce Selective Protein Degradation in Cells” (ACS Chemical Biology, 2025)
This is one part of the list.

B1: Q9UKT9 (peptide)
chain: FICEVCGAYFTQKGNLLRHIKL
B2: Q9UKT9 (peptide)
chain: FDCPICGRIFTQKGNLLRHIKL
B3: Q9UKT9 (peptide)
chain: FRCNVCGAFFTQKGNLLRHIKL
B4: Q9UKT9 (peptide)
chain: FVCEICGHGFTQKGNLLRHIKL
B5: Q9UKT9 (peptide)
chain: FTCNQCGRYFTQKGNLLRHIKL
B6: Q9UKT9 (peptide)
chain: FVCEICGAIFTQKGNLLRHIKL
B7: Q9UKT9 (peptide)
chain: FYCEQCGAHFTQKGNLLRHIKL
B8: Q9UKT9 (peptide)
chain: FDCPQCGAKFTQKGNLLRHIKL
B9: Q9UKT9 (peptide)
chain: FQCNICGAIFTQKGNLLRHIKL
B10: Q9UKT9 (peptide)
chain: LQCEICGFDCTQKGNLLRHIKL
B11: Q9UKT9 (peptide)
chain: FICNICGAYFTQKGNLLRHIKL
B12: Q9UKT9 (peptide)
chain: FICEICGHEFTQKGNLLRHIKL
B13: Q9UKT9 (peptide)
chain: FNCDVCGATFTQKGNLLRHIKL
B14: Q9UKT9 (peptide)
chain: FTCNQCGAQFTQKGNLLRHIKL
B15: Q9UKT9 (peptide)
chain: FACPICGHTFTQKGNLLRHIKL
B16: Q9UKT9 (peptide)
chain: FICNQCGHAFTQKGNLLRHIKL
B17: Q9UKT9 (peptide)
chain: LWCPICGFQCTQKGNLLRHIKL
B18: Q9UKT9 (peptide)
chain: FGCNICGAQFTQKGNLLRHIKL
B19: Q9UKT9 (peptide)
chain: FQCEVCGAFFTQKGNLLRHIKL
B20: Q9UKT9 (peptide)
chain: LLCNQCGFRCTQKGNLLRHIKL
B21: Q9UKT9 (peptide)
chain: FQCEICGRLFTQKGNLLRHIKL
B22: Q9UKT9 (peptide)
chain: FACEICGHQFTQKGNLLRHIKL
B23: Q9UKT9 (peptide)
chain: FYCPVCGARFTQKGNLLRHIKL
B24: Q9UKT9 (peptide)
chain: FSCPQCGAEFTQKGNLLRHIKL
B25: Q9UKT9 (peptide)
chain: LYCEICGFPCTQKGNLLRHIKL
B26: Q9UKT9 (peptide)
chain: FACDVCGAIFTQKGNLLRHIKL
B27: Q9UKT9 (peptide)
chain: FKCDQCGAEFTQKGNLLRHIKL
B28: Q9UKT9 (peptide)
chain: FDCNQCGAGFTQKGNLLRHIKL
B29: Q9UKT9 (peptide)
chain: FVCEICGAVFTQKGNLLRHIKL
B30: Q9UKT9 (peptide)
chain: FYCPICGAMFTQKGNLLRHIKL
B31: Q9UKT9 (peptide)
chain: FHCPQCGAMFTQKGNLLRHIKL
B32: Q9UKT9 (peptide)
chain: FNCPICGHGFTQKGNLLRHIKL
B33: Q9UKT9 (peptide)
chain: FHCNICGAIFTQKGNLLRHIKL
B34: Q9UKT9 (peptide)
chain: FMCPQCGAWFTQKGNLLRHIKL
B35: Q9UKT9 (peptide)
chain: FFCEQCGACFTQKGNLLRHIKL
B36: Q9UKT9 (peptide)
chain: FVCEQCGAEFTQKGNLLRHIKL
B37: Q9UKT9 (peptide)
chain: FKCDICGAQFTQKGNLLRHIKL
B38: Q9UKT9 (peptide)
chain: FMCNQCGAVFTQKGNLLRHIKL
B39: Q9UKT9 (peptide)
chain: FLCNICGAYFTQKGNLLRHIKL
B40: Q9UKT9 (peptide)
chain: FRCPICGRQFTQKGNLLRHIKL
B41: Q9UKT9 (peptide)
chain: FHCEQCGAAFTQKGNLLRHIKL
B42: Q9UKT9 (peptide)
chain: FICNICGAPFTQKGNLLRHIKL
B43: Q9UKT9 (peptide)
chain: FNCNICGARFTQKGNLLRHIKL
B44: Q9UKT9 (peptide)
chain: FHCDQCGAIFTQKGNLLRHIKL
B45: Q9UKT9 (peptide)
chain: FWCEVCGAYFTQKGNLLRHIKL
B46: Q9UKT9 (peptide)
chain: FDCNQCGHFFTQKGNLLRHIKL
B47: Q9UKT9 (peptide)
chain: FNCDICGAGFTQKGNLLRHIKL
B48: Q9UKT9 (peptide)
chain: FCCEICGRVFTQKGNLLRHIKL
B49: Q9UKT9 (peptide)
chain: FLCEVCGATFTQKGNLLRHIKL
B50: Q9UKT9 (peptide)
chain: FRCEVCGAEFTQKGNLLRHIKL

target: no compound (DMSO); assay: log2 fold change of degron read counts, EGFP-low vs EGFP+ sorted cells; higher = lower degron-EGFP level without compound (poor expression or instability); conditions: compound: DMSO control; 18 h
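Also: jurkat cells carrying a lentiviral library of mutant zinc finger degrons fused to EGFP plus mCherry, mCherry+ cells FACS sorted, degron abundance counted by next-generation sequencing.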

Sequence | log2 fold change of degron read counts
B1 | -0.834
B2 | -0.169
B3 | 0.521
B4 | -1.67
B5 | -0.0487
B6 | -0.107
B7 | -0.524
B8 | -2.69
B9 | -0.00915
B10 | -0.5
B11 | 0.392
B12 | -2.52
B13 | -2.06
B14 | -1.71
B15 | -0.361
B16 | -1.82
B17 | 1.95
B18 | -0.35
B19 | -0.527
B20 | 0.994
B21 | -1.6
B22 | -1.76
B23 | -1.02
B24 | -2.83
B25 | 0.859

Sequence | log2 fold change of degron read counts
B26 | -0.0726
B27 | -2.36
B28 | 0.46
B29 | -1.03
B30 | 0.186
B31 | -0.336
B32 | -0.492
B33 | 0.128
B34 | 0.43
B35 | -1.28
B36 | -3.82
B37 | -1.35
B38 | 0.203
B39 | 0.924
B40 | -0.0206
B41 | -1.31
B42 | -0.638
B43 | -0.392
B44 | -0.861
B45 | 0.255
B46 | 1.37
B47 | -1.19
B48 | -0.744
B49 | -2.29
B50 | -2.23
